Experimental data: PubChem BioAssay AID463173 (ICCB-Longwood Screening Facility, Harvard Medical School, 2010)
The whole screen tested about 52,000 compounds, of which about 4,300 (8.3%) were called active. Cut-off read from the data, not from the text of the source: active = survival mostly below about 52% (no sharp cut-off); inactive = mostly above about 56%. The list shows a part of the results.

test system: DeltatarO mutant; assay: growth inhibition of S. aureus wild type versus tarO mutant, primary screen, teichoic acid synthesis inhibitors, RN4220, OD600 (AID 463173); settings: OD600, 18 h, hits give low values, screened at 18.75 µg/mL (by protocol)

Row | Compound | survival
1 | Cc1cc(C)c2nc(NC(=O)c3ccc(S(=O)(=O)N4CCC(C)CC4)cc3)sc2c1 | inactive: 105%
2 | CCc1ccc2nc(SCC(=O)N3CC(=O)Nc4ccccc43)c(C#N)cc2c1 | inactive: 107%
3 | COc1ccc(NC(=O)C2(c3ccc(OC)cc3)CCOCC2)cc1 | inactive: 92%
4 | CCOC(=O)N1CCc2c(sc3c2c(=O)n(Cc2ccccc2)c(=O)n3Cc2ccc(C)cc2)C1 | inactive: 79%
5 | Cc1cc(=O)[nH]c(NCCO)n1 | inactive: 92%
6 | COc1ccc(CCNC(=O)CCCn2c(SCC(N)=O)nc3cc4c(cc3c2=O)OCO4)cc1OC | inactive: 72%
7 | COC(=O)C12CC3CC(CC(C(=O)OC)(C1)C3=O)C2=O | inactive: 116%
8 | COc1ccc(CNC(=O)C2=C(C)C(=O)OC23CCN(C(C)=O)CC3)cc1 | inactive: 89%
9 | CSc1ccc(CNC(=O)CCc2c(C)nn(-c3ccc(N4CCCC4)nn3)c2C)cc1 | inactive: 66%
10 | CC1CCN(c2oc(-c3ccc(COc4ccc(Cl)cc4)o3)nc2C#N)CC1 | inactive: 81%
11 | CCCCOc1ccccc1C(=O)Nc1onc2c1CCCC2 | inactive: 55%
12 | CCc1ccc(-c2nc(CSCC(=O)N3CCN(c4ccc(F)cc4)CC3)c(C)o2)cc1 | inactive: 73%
13 | Cc1ccc(NC(=O)C2CCCN(c3cnccn3)C2)c(C)c1 (centres undefined) | inactive: 78%
14 | CC(C)(CO)NC(=O)c1cc(-c2ccc(Cl)cc2Cl)on1 | inactive: 94%
15 | CCc1ccccc1NC(=O)c1cc2c(Cl)nc3ccccc3c2s1 | active: 42%
16 | O=C(Oc1ccccc1)c1ccc(-n2cnnn2)cc1 | inactive: 100%
17 | COC(=O)c1ccc(CSc2nnc(-c3ccccc3)o2)o1 | inactive: 76%
18 | CCOC(=O)c1cc(-c2ccccc2)n(-c2cccc(C(=O)N(C)c3ccc(C)cc3)c2)c1C | inactive: 80%
19 | CN1CCN(Cc2nc(N)nc(Nc3ccccc3)n2)CC1 | inactive: 70%
20 | CC(C)C1Oc2ccccc2N(CC(=O)N(CCCN2CCOCC2)Cc2ccc(F)cc2)C1=O (centres undefined) | inactive: 112%

Row | Compound | survival
21 | Fc1ccc(N2CCN(Cc3cccn3-c3nnc(N4CCN(C5CCCCC5)CC4)s3)CC2)cc1 | inactive: 94%
22 | COc1ccccc1N=c1scc(-c2ccc(S(=O)(=O)N3CCCC3)cc2)n1C | inactive: 74%
23 | O=C(O)CCC(=O)Nc1nc2ccccc2s1 | inactive: 91%
24 | Cc1nc2c(c(C)nn2-c2ccccc2)c(C)c1CCC(=O)NCCc1ccc(Cl)cc1 | inactive: 93%
25 | COc1cccc(NC(=O)N2CCN(C(=O)c3nsc4ccccc34)CC2)c1 | inactive: 88%
26 | COc1ccccc1CNC(=O)CCNS(=O)(=O)c1cccc2nsnc12 | inactive: 64%
27 | COc1cc(C2NC(=O)c3c(sc4c3CCN(C)C4)N2)ccc1OC(=O)c1ccccc1 (centres undefined) | inactive: 55%
28 | Cc1cccc(C)c1NC(=O)CCS(=O)(=O)c1cccc2nonc12 | inactive: 74%
29 | COC(=O)c1ccc(-c2nc3ccc(C)cc3o2)cc1 | inactive: 102%
30 | CCOC(=O)c1ccc(NC2=CC(c3ccc(F)cc3)N(c3ccc(C(=O)OCC)cc3)C2=O)cc1 (centres undefined) | inactive: 66%
31 | CCOc1ccccc1NC(=O)c1cc2c(=O)n(Cc3cccnc3)ccc2nc1C | inactive: 64%
32 | CCCOc1cccc(C(=O)Nc2ccc(-c3cc4ccccc4oc3=O)c(C)c2)c1 | inactive: 73%
33 | O=C(Cc1ccccc1)NN1C(=O)CSC1=S | inactive: 71%
34 | Cc1ccccc1Cn1c(SCc2ccc(C(=O)NC3CCCC3)cc2)nc2ccncc21 | inactive: 66%
35 | CC(=O)Nc1ccc(Nc2ncnc3c2c(-c2ccccc2)cn3-c2ccc(C)c(Cl)c2)cc1 | inactive: 68%
36 | COc1ccc(C2C(C(=O)Nc3ccccc3)=C(C)Nc3nc(-c4ccccc4Cl)nn32)cc1OC (centres undefined) | inactive: 50%
37 | CCOCCCNc1nc2cc(OC)c(OC)cc2c2nc(-c3ccccc3)nn12 | active: 44%
38 | Cc1ccc(NC(=O)Cn2c(=O)n(CCC(=O)NCc3ccccc3Cl)c(=O)c3ccccc32)c(C)c1 | inactive: 102%
39 | CC(C)OC(=O)CCC1(C(=O)O)CCC(=O)NC1 (centres undefined) | inactive: 88%
40 | Cc1cccc(NS(=O)(=O)c2ccc3nc(-c4ccccc4)[nH]c3c2)c1C | inactive: 109%

Row | Compound | survival
41 | O=C(Nc1ccc2nc(SCCOc3ccccc3)sc2c1)c1ccc2c(c1)OCO2 | inactive: 83%
42 | Clc1ccccc1Nc1ncnc2c1nc1n2CCCCC1 | active: 8%
43 | Cc1ccc2nc(N3CCN(c4ccccc4F)CC3)c3nnnn3c2c1 | inactive: 87%
44 | COc1ccc(CC(=O)NCc2ccc3c(c2)CCN3C(=O)c2cccc(C)c2)cc1 | active: -4%
45 | Cc1ccc(-n2cnc3cc(C(=O)NCc4ccccc4Cl)ccc32)c(C)c1 | active: 37%
46 | CCCOc1cccc(C2c3c(oc4ccc(F)cc4c3=O)C(=O)N2Cc2ccc3c(c2)OCO3)c1 (centres undefined) | inactive: 66%
47 | Cc1nc(-n2nc(C)c(Cc3ccc4c(c3)OCO4)c2C)sc1C(=O)Nc1ccc(Cl)cc1 | inactive: 95%
48 | Cc1cccc(Cn2cccc2CNS(=O)(=O)c2ccc(C)c(C)c2)c1 | inactive: 82%
49 | CSc1ccc(-c2ccc3c(c2)OCCO3)nn1 | inactive: 91%
50 | CCCCN(Cc1ccco1)C(=O)Cn1ncc2c([nH]c3ccccc32)c1=O | inactive: 144%
51 | CN1CCSc2ccc(C(=O)NCc3ccccc3)cc21 | inactive: 67%
52 | O=C(c1ccco1)n1nc(-c2ccc(Cl)cc2)nc1NCc1ccc(F)cc1 | inactive: 80%
53 | COc1ccc2c(c1)cc1c(=O)n(CC(=O)NCCc3ccccc3)nc(C)n12 | inactive: 73%
54 | CCOC(=O)Cc1ccc(NC(=O)N2CC(C)Oc3ccc(Cl)cc32)cc1 (centres undefined) | inactive: 55%
55 | COc1cc2nc(NCc3ccccc3)n3nc(-c4ccccc4)nc3c2cc1OC | active: 47%
56 | O=C(Nc1cccc(Br)c1)c1cc(-c2ccc3c(c2)OCCO3)on1 | inactive: 47%
57 | CC(C)NS(=O)(=O)c1ccc(N2C(=O)c3ccccc3C2=O)cc1 | inactive: 96%
58 | C=CCN(CC=C)C(=O)CN1C(=O)c2ccccc2C1=O | inactive: 68%
59 | COc1cc2[nH]c(=O)n(CCCCCC(=O)N3CCN(c4ccc(Cl)cc4)CC3)c(=O)c2cc1OC | inactive: 67%
